Laboratory results taken from patent US20190183976A1 (GPCR THERAPEUTICS, published 2019).

B1: SSTR2-VC (receptor, human, UniProt P30874 1-369, looked up)
chain: MDMADEPLNGSHTWLSIPFDLNGSVVSTNTSNQTEPYYDLTSNAVLTFIYFVVCIIGLCGNTLVIYVILRYAKMKTITNIYILNLAIADELFMLGLPFLAMQVALVHWPFGKAICRVVMTVDGINQFTSIFCLTVMSIDRYLAVVHPIKSAKWRRPRTAKMITMAVWGVSLLVILPIMIYAGLRSNQWGRSSCTINWPGESGAWYTGFIIYTFILGFLVPLTIICLCYLFIIIKVKSSGIRVGSSKRKKSEKKVTRMVSIVVAVFIFCWLPFYIFNVSSVSMAISPTPALKGMFDFVVVLTYANSCANPILYAFLSDNFKKSFQNVLCLVKVSGTDDGERSDSKQDKSRLNETTETQRTLLNGDLQTSI
notes: whole, on cells; Adenovirus-expressed in U-2 OS cells; not shown: VC155, C-terminal fragment of Venus
B2: MLNR-VC (receptor, human, UniProt O43193 1-412, looked up)
chain: MGSPWNGSDGPEGAREPPWPALPPCDERRCSPFPLGALVPVTAVCLCLFVVGVSGNVVTVMLIGRYRDMRTTTNLYLGSMAVSDLLILLGLPFDLYRLWRSRPWVFGPLLCRLSLYVGEGCTYATLLHMTALSVERYLAICRPLRARVLVTRRRVRALIAVLWAVALLSAGPFLFLVGVEQDPGISVVPGLNGTARIASSPLASSPPLWLSRAPPPSPPSGPETAEAAALFSRECRPSPAQLGALRVMLWVTTAYFFLPFLCLSILYGLIGRELWSSRRPLRGPAASGRERGHRQTVRVLLVVVLAFIICWLPFHVGRIIYINTEDSRMMYFSQYFNIVALQLFYLSASINPILYNLISKKYRAAAFKLLLARKSRPRGFHRSRDTAGEVAGDTGGDTVGYTETSANVKTMG
notes: as for B1
B3: PTGER2-VC (receptor, human, UniProt P43116 1-358, looked up)
chain: MGNASNDSQSEDCETRQWLPPGESPAISSVMFSAGVLGNLIALALLARRWRGDVGCSAGRRSSLSLFHVLVTELVFTDLLGTCLISPVVLASYARNQTLVALAPESRACTYFAFAMTFFSLATMLMLFAMALERYLSIGHPYFYQRRVSRSGGLAVLPVIYAVSLLFCSLPLLDYGQYVQYCPGTWCFIRHGRTAYLQLYATLLLLLIVSVLACNFSVILNLIRMHRRSRRSRCGPSLGSGRGGPGARRRGERVSMAEETDHLILLAIMTITFAVCSLPFTIFAYMNETSSRKEKWDLQALRFLSINSIIDPWVFAILRPPVLRLMRSVLCCRISLRTQDATQTSCSTQSDASKQADL
notes: as for B1
B4: HRH1-VC (receptor, human, UniProt P35367 1-487, looked up)
chain: MSLPNSSCLLEDKMCEGNKTTMASPQLMPLVVVLSTICLVTVGLNLLVLYAVRSERKLHTVGNLYIVSLSVADLIVGAVVMPMNILYLLMSKWSLGRPLCLFWLSMDYVASTASIFSVFILCIDRYRSVQQPLRYLKYRTKTRASATILGAWFLSFLWVIPILGWNHFMQQTSVRREDKCETDFYDVTWFKVMTAIINFYLPTLLMLWFYAKIYKAVRQHCQHRELINRSLPSFSEIKLRPENPKGDAKKPGKESPWEVLKRKPKDAGGGSVLKSPSQTPKEMKSPVVFSQEDDREVDKLYCFPLDIVHMQAAAEGSSRDYVAVNRSHGQLKTDEQGLNTHGASEISEDQMLGDSQSFSRTDSDTTTETAPGKGKLRSGSNTGLDYIKFTWKRLRSHSRQYVSGLHMNRERKAAKQLGFIMAAFILCWIPYFIFFMVIAFCKNCCNEHLHMFTIWLGYINSTLNPLIYPLCNENFKKTFKRILHIRS
notes: as for B1

Legend:
CXCR4-VN [1] = target: T1, CXCR4-VN (human, UniProt P61073 1-352); experiment: BiFC, U-2 OS cells, CXCR4-VN & GPCRx-VC; score=(positive cells/total cells)x100
T1 construct: whole, on cells; Adenovirus-expressed in U-2 OS cells; also called CXCR4 fused with N-terminal fragment of Venus; not shown: VNm10, N-terminal fragment of Venus (VN154 variant with L46F and L64F)

CXCR4-VN [2] = target: T1, CXCR4-VN; experiment: as above; remark: listed apart in the source

| Binder | BiFC score (CXCR4-VN [1]) | BiFC score (CXCR4-VN [2]) |
| --- | --- | --- |
| B1 | 30 | 30 |
| B2 | – | 10 |
| B3 | – | 58 |
| B4 | – | 45 |

Where two headings read alike, the source gives them in different places.
